Laboratory results reported in PubChem BioAssay AID250 (DTP/NCI, 2004).
Values joined by “and” are separate entries in the source; they are usually repeats but may differ in a detail not shown here. Identical values can stand only once. The source gives many values for each of these; only a part stands here. Toxic doses and inconclusive results are not listed. The calls were made as follows: active = survival T/C of 150% or more; inactive = T/C below 125% in these data.

Tested on: BDF1 mice, L1210 leukemia sc, survival T/C
Experiment: NCI In Vivo Anticancer Drug Screen. Data for tumor model L1210 Leukemia (subcutaneous) in B6D2F1 (BDF1) mice
Details: higher = longer survival
Experimental: The antitumor activity of compounds was measured in mice bearing transplantable tumors. Survival or tumor size were measured and the results are expressed as the measurement made in the treated group (T) divided by the measurement made in the vehicle treated control group (C). The tumor model used in this assay is L1210 Leukemia (subcutaneous) in B6D2F1 (BDF1) mice

Measured: T/C

CN(Cc1cnc2nc(N)nc(N)c2n1)c1ccc(C(=O)N[C@@H](CCC(=O)O)C(=O)O)cc1
active: endpoint: mean survival time, dose: 1.08 mg/kg/injection, schedule: Q01DX009 (sc), vehicle: other 175 % of control | endpoint: mean survival time, dose: 1.5 mg/kg/injection, schedule: Q01DX015 (ip), vehicle: other 180 % of control and 188 % of control and 203 % of control | endpoint: mean survival time, dose: 1.8 mg/kg/injection, schedule: Q01DX009 (sc), vehicle: other 194 % of control | endpoint: mean survival time, dose: 2.0 mg/kg/injection, schedule: Q01DX015 (ip), vehicle: other 178 % of control and 182 % of control and 198 % of control | endpoint: mean survival time, dose: 3.0 mg/kg/injection, schedule: Q01DX009 (sc), vehicle: other 174 % of control | endpoint: mean survival time, dose: 4.0 mg/kg/injection, schedule: Q01DX009 (ip), vehicle: sodium bicarbonate 187 % of control | endpoint: median survival time, dose: 0.05 mg/kg/injection, schedule: Q## X Z (sc), vehicle: other 255 % of control | endpoint: median survival time, dose: 0.08 mg/kg/injection, schedule: Q## X Z (sc), vehicle: other 233 % of control | endpoint: median survival time, dose: 0.14 mg/kg/injection, schedule: Q## X Z (sc), vehicle: other 233 % of control | endpoint: median survival time, dose: 0.23 mg/kg/injection, schedule: Q## X Z (sc), vehicle: other 177 % of control | endpoint: median survival time, dose: 0.23 mg/kg/injection, schedule: Q#A X Z (sc), vehicle: other 266 % of control | endpoint: median survival time, dose: 0.37 mg/kg/injection, schedule: Q01DX Z (sc), vehicle: sodium bicarbonate 300 % of control | endpoint: median survival time, dose: 0.38 mg/kg/injection, schedule: Q01DX Z (sc), vehicle: other 268 % of control | endpoint: median survival time, dose: 0.39 mg/kg/injection, schedule: Q01DX008 (sc), vehicle: other 200 % of control | endpoint: median survival time, dose: 0.39 mg/kg/injection, schedule: Q#A X Z (sc), vehicle: other 261 % of control | endpoint: median survival time, dose: 0.4 mg/kg/injection, schedule: Q01DX Z (sc), vehicle: other 237 % of control | endpoint: median survival time, dose: 0.49 mg/kg/injection, schedule: Q01DX Z (sc), vehicle: other 227 % of control | endpoint: median survival time, dose: 0.52 mg/kg/injection, schedule: Q01DX Z (sc), vehicle: other 209 % of control and 227 % of control and 255 % of control | endpoint: median survival time, dose: 0.54 mg/kg/injection, schedule: Q01DX Z (sc), vehicle: other 244 % of control | endpoint: median survival time, dose: 0.54 mg/kg/injection, schedule: Q01DX Z (sc), vehicle: water 316 % of control | endpoint: median survival time, dose: 0.59 mg/kg/injection, schedule: Q01DX Z (sc), vehicle: other 210 % of control | endpoint: median survival time, dose: 0.62 mg/kg/injection, schedule: Q01DX Z (sc), vehicle: other 220 % of control and 233 % of control | endpoint: median survival time, dose: 0.64 mg/kg/injection, schedule: Q01DX Z (ip), vehicle: other 244 % of control | endpoint: median survival time, dose: 0.65 mg/kg/injection, schedule: Q01DX008 (sc), vehicle: other 220 % of control | endpoint: median survival time, dose: 0.65 mg/kg/injection, schedule: Q01DX009 (sc), vehicle: other 177 % of control | endpoint: median survival time, dose: 0.65 mg/kg/injection, schedule: Q01DX025 (sc), vehicle: other 173 % of control and 177 % of control | endpoint: median survival time, dose: 0.65 mg/kg/injection, schedule: Q01DX Z (ip), vehicle: other 250 % of control | endpoint: median survival time, dose: 0.65 mg/kg/injection, schedule: Q01DX Z (sc), vehicle: saline 281 % of control | endpoint: median survival time, dose: 0.65 mg/kg/injection, schedule: Q01DX Z (sc), vehicle: water 263 % of control | endpoint: median survival time, dose: 0.65 mg/kg/injection, schedule: Q#A X Z (sc), vehicle: other 216 % of control | endpoint: median survival time, dose: 0.67 mg/kg/injection, schedule: Q01DX Z (sc), vehicle: other 250 % of control | endpoint: median survival time, dose: 0.75 mg/kg/injection, schedule: Q01DX012 (ip), vehicle: sodium bicarbonate 188 % of control | endpoint: median survival time, dose: 0.75 mg/kg/injection, schedule: Q01DX Z (sc), vehicle: sodium bicarbonate 266 % of control | endpoint: median survival time, dose: 0.78 mg/kg/injection, schedule: Q01DX Z (iv), vehicle: other 231 % of control | endpoint: median survival time, dose: 0.79 mg/kg/injection, schedule: Q01DX Z (sc), vehicle: other 216 % of control | endpoint: median survival time, dose: 0.84 mg/kg/injection, schedule: Q01DX Z (sc), vehicle: other 208 % of control and 273 % of control | endpoint: median survival time, dose: 0.86 mg/kg/injection, schedule: Q01DX Z (sc), vehicle: water 305 % of control | endpoint: median survival time, dose: 0.89 mg/kg/injection, schedule: Q01DX Z (sc), vehicle: other 275 % of control | endpoint: median survival time, dose: 0.94 mg/kg/injection, schedule: Q01DX Z (sc), vehicle: other 227 % of control | endpoint: median survival time, dose: 0.98 mg/kg/injection, schedule: Q01DX Z (sc), vehicle: other 266 % of control | endpoint: median survival time, dose: 1.07 mg/kg/injection, schedule: Q01DX Z (ip), vehicle: other 250 % of control | endpoint: median survival time, dose: 1.08 mg/kg/injection, schedule: Q01DX008 (sc), vehicle: other 225 % of control | endpoint: median survival time, dose: 1.08 mg/kg/injection, schedule: Q01DX015 (sc), vehicle: other 183 % of control and 184 % of control | endpoint: median survival time, dose: 1.08 mg/kg/injection, schedule: Q01DX025 (sc), vehicle: other 188 % of control and 189 % of control | endpoint: median survival time, dose: 1.08 mg/kg/injection, schedule: Q01DX Z (sc), vehicle: saline 275 % of control | endpoint: median survival time, dose: 1.08 mg/kg/injection, schedule: Q01DX Z (sc), vehicle: water 245 % of control | endpoint: median survival time, dose: 1.09 mg/kg/injection, schedule: Q01DX Z (sc), vehicle: other 227 % of control and 229 % of control and 250 % of control | endpoint: median survival time, dose: 1.12 mg/kg/injection, schedule: Q01DX Z (sc), vehicle: other 204 % of control | endpoint: median survival time, dose: 1.25 mg/kg/injection, schedule: Q01DX Z (sc), vehicle: other 227 % of control and 235 % of control | endpoint: median survival time, dose: 1.3 mg/kg/injection, schedule: Q01DX Z (iv), vehicle: other 237 % of control | endpoint: median survival time, dose: 1.3 mg/kg/injection, schedule: Q01DX Z (oral), vehicle: other 237 % of control | endpoint: median survival time, dose: 1.31 mg/kg/injection, schedule: Q01DX Z (sc), vehicle: other 204 % of control | endpoint: median survival time, dose: 1.33 mg/kg/injection, schedule: Q01DX Z (sc), vehicle: other 250 % of control | endpoint: median survival time, dose: 1.4 mg/kg/injection, schedule: Q01DX Z (sc), vehicle: other 225 % of control and 265 % of control | endpoint: median survival time, dose: 1.44 mg/kg/injection, schedule: Q01DX Z (sc), vehicle: water 300 % of control | endpoint: median survival time, dose: 1.5 mg/kg/injection, schedule: Q01DX Z (sc), vehicle: sodium bicarbonate 333 % of control | endpoint: median survival time, dose: 1.79 mg/kg/injection, schedule: Q01DX Z (ip), vehicle: other 177 % of control | endpoint: median survival time, dose: 1.8 mg/kg/injection, schedule: Q01DX008 (sc), vehicle: other 183 % of control and 205 % of control | endpoint: median survival time, dose: 1.8 mg/kg/injection, schedule: Q01DX010 (sc), vehicle: other 177 % of control | endpoint: median survival time, dose: 1.8 mg/kg/injection, schedule: Q01DX013 (sc), vehicle: other 174 % of control | endpoint: median survival time, dose: 1.8 mg/kg/injection, schedule: Q01DX025 (sc), vehicle: other 194 % of control and 200 % of control | endpoint: median survival time, dose: 1.8 mg/kg/injection, schedule: Q01DX Z (ip), vehicle: other 260 % of control | endpoint: median survival time, dose: 1.8 mg/kg/injection, schedule: Q01DX Z (oral), vehicle: other 200 % of control | endpoint: median survival time, dose: 1.8 mg/kg/injection, schedule: Q01DX Z (sc), vehicle: saline 268 % of control | endpoint: median survival time, dose: 1.8 mg/kg/injection, schedule: Q01DX Z (sc), vehicle: water 213 % of control | endpoint: median survival time, dose: 1.8 mg/kg/injection, schedule: Q02DX Z (sc), vehicle: other 177 % of control | endpoint: median survival time, dose: 1.81 mg/kg/injection, schedule: Q01DX Z (sc), vehicle: other 191 % of control and 218 % of control and 240 % of control | endpoint: median survival time, dose: 1.87 mg/kg/injection, schedule: Q01DX Z (sc), vehicle: other 191 % of control | endpoint: median survival time, dose: 1.88 mg/kg/injection, schedule: Q01DX Z (sc), vehicle: other 216 % of control | endpoint: median survival time, dose: 1.95 mg/kg/injection, schedule: Q01DX Z (sc), vehicle: other 250 % of control | endpoint: median survival time, dose: 2.16 mg/kg/injection, schedule: Q01DX Z (iv), vehicle: other 243 % of control | endpoint: median survival time, dose: 2.16 mg/kg/injection, schedule: Q01DX Z (oral), vehicle: other 212 % of control | endpoint: median survival time, dose: 2.18 mg/kg/injection, schedule: Q01DX Z (sc), vehicle: other 191 % of control | endpoint: median survival time, dose: 2.2 mg/kg/injection, schedule: Q01DX Z (sc), vehicle: other 195 % of control | endpoint: median survival time, dose: 2.33 mg/kg/injection, schedule: Q01DX Z (sc), vehicle: other 173 % of control | endpoint: median survival time, dose: 2.4 mg/kg/injection, schedule: Q01DX Z (sc), vehicle: water 211 % of control | endpoint: median survival time, dose: 2.5 mg/kg/injection, schedule: Q01DX Z (sc), vehicle: other 180 % of control and 188 % of control | endpoint: median survival time, dose: 3.0 mg/kg/injection, schedule: Q01DX008 (sc), vehicle: other 175 % of control and 188 % of control | endpoint: median survival time, dose: 3.0 mg/kg/injection, schedule: Q01DX013 (sc), vehicle: other 184 % of control | endpoint: median survival time, dose: 3.0 mg/kg/injection, schedule: Q01DX015 (sc), vehicle: other 177 % of control and 181 % of control | endpoint: median survival time, dose: 3.0 mg/kg/injection, schedule: Q01DX025 (sc), vehicle: other 180 % of control and 183 % of control | endpoint: median survival time, dose: 3.0 mg/kg/injection, schedule: Q01DX Z (sc), vehicle: saline 193 % of control | endpoint: median survival time, dose: 3.0 mg/kg/injection, schedule: Q02DX Z (sc), vehicle: other 244 % of control | endpoint: median survival time, dose: 3.6 mg/kg/injection, schedule: Q01DX Z (oral), vehicle: other 262 % of control | endpoint: median survival time, dose: 5.0 mg/kg/injection, schedule: Q01DX Z (oral), vehicle: other 205 % of control | endpoint: median survival time, dose: 5.0 mg/kg/injection, schedule: Q02DX009 (sc), vehicle: other 193 % of control | endpoint: median survival time, dose: 5.0 mg/kg/injection, schedule: Q02DX Z (sc), vehicle: other 194 % of control and 200 % of control | endpoint: median survival time, dose: 23.0 mg/kg/injection, schedule: Q04DX005 (sc), vehicle: sodium bicarbonate 216 % of control | endpoint: median survival time, dose: 23.0 mg/kg/injection, schedule: Q## X Z (sc), vehicle: other 176 % of control and 178 % of control
